This is one part of the list.
tested on: PfHDP1 homeodomain (GST-tagged); assay: gcPBM binding intensity (ln(normalized median fluorescence intensity)); higher = stronger DNA binding
Procedure, shortened: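 An Agilent 4 × 180k array of primer-extended double-stranded 36-bp intergenic genomic probes, with negative controls, was incubated for 1 h with GST-tagged P. falciparum DNA-binding domains expressed in E. coli. Alexa488 anti-GST antibody detected bound protein, scanned at 488 nm. Binding intensity is the highest Masliner-normalised natural-log median intensity across replicate spots of either probe orientation.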

Sequence	gcPBM binding intensity (ln)
AATTTATATTTTCGTAGTACGTATTTTATTCTTTTG [XGTACX_site4162]	6.29
ATTACATGCAATATATGTACGTAATATATATATATA [XGTACX_site2300]	9
CTGAACCCGTTATGGTGTACATAAAATAAGACACAG [XGTACX_site3484]	6.4
TGCATGCATTATCATAGTACATATAATGTTGTATAA [XGTACX_site2775]	6.56
TAATCTTTCGTACATGTACACACAGAAAAAAAAAAA [CACACA_site8798]	6.46
TATTAAGTATTTTACGTACACACTTATAAATGTACA [CACACA_site3885]	6.45
ATTATTAAGTTTCACAAGAACATTGTTAACAATTTT [CACACA_negctrl_site1128]	6.39
TTTATATATGTAAATGCACACATATGTGTATATACT [CACACA_site8493]	9.89
ATATATAATATTTTTATTTTTATTTTTTTTTTATGA [TGCATGCA_negctrl_site577]	6.14
TACCATGTTCAAATTACACACATATAATGTAATATA [CACACA_site5150]	6.56
ATTAAGTTCAAATGTAGTACGTGTAAAAAAAAAAAA [XGTACX_site1578]	6.67
TATAGGTATATATTATGTACTTATAATTATATAGAT [XGTACX_site1912]	6.36
AAAATAAATAAATAAATAAATATATATATATATATA [XGTACX_negctrl_site345]	9.09
TTATTACATGTTACTTAACACACATCTGGTGAAATA [CACACA_site7939]	6.56
AAAATATAGTAATATATATATGTATATTATTTGTGG [CACACA_negctrl_site1590]	6.78
GGAAAGACAGTTCACAGTACCCAGTAAACTCTACGG [XGTACX_site2557]	5.81
GAAAAAATTTTATGGTGTACTTTATTTATTTATATA [XGTACX_site6323]	6.45
GATTATATTATATATTAAATATAAATATGTATTATA [TGCATGCA_negctrl_site66]	6.15
ATGTTGTGTATATATACACACATACATATATATATA [CACACA_site8461]	8.98

Sequence	gcPBM binding intensity (ln)
GAAATATTTAGACACACACACAAACATATAAATATA [CACACA_site6980]	7.03
AAAAAAAATTAAAATAAATTAAAAAGTAATTATATA [GTGCAC_negctrl_site615]	6.06
AATGAGAAGGACTGCACACTAAAATGGAAGGAGAAA [CACACA_site1575]	6.97
AATGGAAATGTAAAATGTACAGGACGCACACACATA [XGTACX_site7788]	6.7
TCAAAGCACACATACACACACATATAGATTTATATA [CACACA_site6272]	6.85
TCTTCATAAAAATAAAGTACATTATATATATAAATA [XGTACX_site3775]	6.37
TAAATAAATATATATTCACACACAAACATATATATA [CACACA_site9332]	6.58
ATTAATATTATTAGAAGTACTAATAGTAGTATAACT [XGTACX_site1325]	6.8
TTTTTATTATTCTTAAGGATATAACAAAAAAGAAAA [XGTACX_negctrl_site584]	5.98
TTCTAAAAAAATAAAATTATCAAGGTTTTTAAACGT [CACACA_negctrl_site308]	6.41
TATAAATTTAAAATGACACACACTAATATTATTTAA [CACACA_site8334]	6.79
GGGTCAAGTAAGCTGTTCCTCTTTTTCTTTCTCACT [GTGCAC_negctrl_site473]	6.6
TGTCTTTAAATTTCTCAACACACAGTTATAAAAAAT [CACACA_site8930]	6.65
ATACGATTGAAACATTGTACATGAATATAAAAAAAT [XGTACX_site5704]	6.8
TTGTATATATATGGAAAAATATATATATATATATAT [GTGCAC_negctrl_site591]	9.43
TTTATTTATAGACACACACACAAAAAAAAAAAAAAA [CACACA_site7280]	6.25
CATTTATATTATAAATGTACAAAGTTCGTTTGTTCC [XGTACX_site1305]	6.24
TTTTTTTTTTTTTTTATAAAAGATAATTTTTTTTTA [CACACA_negctrl_site133]	6.43
AAAAAAACATAAAATACACACAACCTTAAGAATGTA [CACACA_site3293]	6.53

Sequence	gcPBM binding intensity (ln)
TTATAAAATATATATACATGCACAAAATTATAAGTA [TGCATGCA_site294]	8.27
AATCAACATTTTTTTTGCTATTTTTTTTTTTAATTA [CACACA_negctrl_site891]	6.31
ATGAAAAAAAGACATGCATGTAAATATAAATTGCTT [TGCATGCA_site504]	6.68
CTCATTTTGTTAATGGTGCAAAAAAAAAAAAAAAAA	9.82
TATTTAAAACTATACACATGCATTATATAAAGATAT [TGCATGCA_site702]	6.45
AGTAAGAGGCATTAAGCATGCATATTATTATAAGCA [TGCATGCA_site237]	6.29
CATTATAAGAGACACACACACATATATAAATATGTA [CACACA_site6621]	6.53
AAAATTTATTATCTATATAATAATATGAAACAAAAC [GTGCAC_negctrl_site731]	6.84
TTTCATTTTTGAAGGTGTACTTAAAATTTATGTAAT [XGTACX_site6671]	6.29
TAAATACATTTATATACACACCTATATATATATATA [CACACA_site5137]	9.11
TCCAAATGAAAAAATTGTACATATTTTATCATATAT [XGTACX_site6159]	6.39
TATAATTTAAAATACACACACATATATATAATATAT [CACACA_site2000]	6.76
ATAAGAAATTTCATACGTACATAAATAAATATATAT [XGTACX_site2932]	6.55
AAAAAATTTATAAAAGCACACAAAATAAAAAAAAAT [CACACA_site8420]	6.86
GTATGATGTGAACATTGTACGAATGAATATATCTAA [XGTACX_site3789]	6.18
ATATAAGTATACACATGTACATATTTCTTATGTATA [XGTACX_site2854]	6.72
TATAAAGACACGTACACACACTAAGTATATCCAATA [CACACA_site6855]	6.75
AAAATGTTAAATATTAAATATGAAACAAAAAAAAAA [GTGCAC_negctrl_site211]	6.38

— the supplement of paper PMC11417369
